From paper PMC3558931 (Chemistry & biology, 2013) come the findings set out here.

The structures appear in SMILES notation.

For this assay, the system named is dissociated dorsal root ganglion (DRG) neurons. The assay is classed as cell-based, mice. The following applies: 50 μM.

On to `CCCCCC[C@H](O)c1oc(OC)c(C)c(=O)c1C` [compound 3], for which the “activity in the calcium-imaging assay” value is “inactive”.
